Source: paper PMC7948509
These are yes or no findings as the source states them, for the method shown. Binding seen in cells or lysates may run through a third protein. Some binding calls cover weakened binding; strength is not graded here.

Chains of the proteins cited; added tags and fusions are not shown.
UniProt Q9BSQ5: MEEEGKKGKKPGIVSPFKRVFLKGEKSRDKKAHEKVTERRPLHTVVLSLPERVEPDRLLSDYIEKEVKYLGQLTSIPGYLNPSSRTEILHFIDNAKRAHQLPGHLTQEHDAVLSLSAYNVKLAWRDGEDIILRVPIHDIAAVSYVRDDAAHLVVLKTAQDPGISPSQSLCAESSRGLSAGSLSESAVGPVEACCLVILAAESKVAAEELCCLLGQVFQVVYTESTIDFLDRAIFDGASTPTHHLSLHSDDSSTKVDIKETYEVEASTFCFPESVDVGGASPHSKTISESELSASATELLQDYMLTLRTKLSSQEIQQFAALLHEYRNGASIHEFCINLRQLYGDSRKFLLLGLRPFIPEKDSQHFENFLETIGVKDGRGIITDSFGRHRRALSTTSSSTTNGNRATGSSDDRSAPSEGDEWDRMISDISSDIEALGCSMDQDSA

Columns and labels:
[1] = target: T1, MEKK3 (endogenous) (human (endogenous in HEK293T and HEK293A)) (UniProt Q99759); experiment: co-IP; endogenous MEKK3 immunoprecipitated from HEK293A cell lysates; detection with anti-STRN3 and anti-CCM2 antibody (Fig. 6D, untreated)
T1 sequence: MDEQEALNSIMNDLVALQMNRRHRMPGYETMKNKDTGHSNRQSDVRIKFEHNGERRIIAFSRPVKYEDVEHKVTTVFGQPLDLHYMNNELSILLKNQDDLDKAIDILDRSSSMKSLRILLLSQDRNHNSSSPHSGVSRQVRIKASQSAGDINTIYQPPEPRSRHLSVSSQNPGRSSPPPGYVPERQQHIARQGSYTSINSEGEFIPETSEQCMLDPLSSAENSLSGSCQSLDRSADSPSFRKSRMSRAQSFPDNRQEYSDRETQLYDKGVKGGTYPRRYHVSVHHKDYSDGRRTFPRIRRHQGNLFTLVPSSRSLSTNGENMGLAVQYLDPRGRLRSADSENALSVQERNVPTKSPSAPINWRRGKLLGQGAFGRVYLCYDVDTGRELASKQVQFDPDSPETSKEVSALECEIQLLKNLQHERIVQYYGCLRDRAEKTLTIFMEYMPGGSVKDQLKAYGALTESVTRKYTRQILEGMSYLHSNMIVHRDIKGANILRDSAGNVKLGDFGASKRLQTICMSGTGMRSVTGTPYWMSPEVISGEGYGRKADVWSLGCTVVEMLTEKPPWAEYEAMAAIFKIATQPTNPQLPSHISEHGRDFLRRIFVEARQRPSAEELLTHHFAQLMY

[2] = target: T1, MEKK3 (endogenous) (human (endogenous in HEK293T and HEK293A)); experiment: condition: only cells serum-starved for 2 h or treated with LatB for 1 h; co-IP; as a11, but HEK293A cells serum-starved for 2 h or treated with LatB for 1 h (Fig. 6D)

Substance: CCM2 (endogenous) (from UniProt Q9BSQ5 1-444)
- binding [1]: binds
- binding [2]: no binding
